Measurements published in the supplement of paper PMC4604168 (melanoma cell lines).
This is one part of the list. Single values are uncertain, as repeats are few or missing.

What was measured:
Assay in all cases: cell count relative to DMSO control; melanoma cells; higher = more viable cells
Conditions in all cases: library dose: standard library concentration; 72 h
G361 = system: G361
IPC-298 = system: IPC-298
IST-MEL1 = system: IST-MEL1
LB2518-MEL = system: LB2518-MEL
LOXIMVI = system: LOXIMVI
MEL-HO = system: MEL-HO
MZ2-MEL = system: MZ2-MEL
MeWo = system: MeWo
RPMI7951 = system: RPMI7951
RVH-421 = system: RVH-421
SkMel28 = system: SkMel28
SkMel2 = system: SkMel2
SkMel30 = system: SkMel30
SkMel5 = system: SkMel5
UACC257 = system: UACC257
UACC62 = system: UACC62
WM115 = system: WM115
WM1716 = system: WM1716
WM1745 = system: WM1745
WM3526 = system: WM3526
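Note: cells treated in 1,536-well plates, then fixed and DAPI-stained, with nuclei counted from automated high-throughput microscope images.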

SMILES | cell count (G361) | cell count (IPC-298) | cell count (IST-MEL1) | cell count (LB2518-MEL) | cell count (LOXIMVI) | cell count (MEL-HO) | cell count (MZ2-MEL) | cell count (MeWo) | cell count (RPMI7951) | cell count (RVH-421) | cell count (SkMel28) | cell count (SkMel2) | cell count (SkMel30) | cell count (SkMel5) | cell count (UACC257) | cell count (UACC62) | cell count (WM115) | cell count (WM1716) | cell count (WM1745) | cell count (WM3526)
Clc1ccc(Nc2nnc(Cc3ccncc3)c3ccccc23)cc1 [vatalanib] + Nc1cccc2c1CN(C1CCC(=O)NC1=O)C2=O [lenalidomide] (first compound 10 µM, partner dose 5 µM) | 65% | 62.1% | 84.2% | 78.8% | 61.3% | 58.9% | 63.7% | 67.9% | 86.9% | 87.7% | 85.3% | 88% | 94.1% | 76.5% | 85.8% | 58.4% | 104% | 112% | 62.7% | 81.4%
OCc1c[nH]c2ccccc12 [Indole-3-carbinol] + COc1ccc(Cl)c(Nc2nc3ccccc3nc2NS(=O)(=O)c2cccc(NC(=O)C(C)(C)N)c2)c1 [XL147] (first compound 4 µM, partner dose 4 µM) | 89.1% | 76.4% | 60% | 90.8% | 115% | 74.5% | 76.4% | 88.7% | 79.6% | 74.6% | 55.3% | 86.1% | 95.3% | 68.8% | 70.2% | 68.2% | 92.6% | 80% | 108% | 67.1%
Clc1ccc(Nc2nnc(Cc3ccncc3)c3ccccc23)cc1 [vatalanib] + Cn1c(Nc2ccc(C(F)(F)F)cc2)nc2cc(Oc3ccnc(-c4ncc(C(F)(F)F)[nH]4)c3)ccc21 [CHIR265] (first compound 10 µM, partner dose 0.4 µM) | 13.6% | 45.4% | 74.9% | 20.8% | 77.7% | 57.6% | 29.4% | 69% | 47.9% | 42.2% | 24.6% | 44.3% | 56% | 22.6% | 51.2% | 50% | 29.8% | 71.2% | 33.6% | 35.4%
Cn1c(Nc2ccc(C(F)(F)F)cc2)nc2cc(Oc3ccnc(-c4ncc(C(F)(F)F)[nH]4)c3)ccc21 + Cc1ccc(NC(=O)c2cccc(N(C)C)c2)cc1NC(=O)c1ccc(O)cc1 [ZM336372] (first compound 0.4 µM, partner dose 10 µM) | 23.1% | 52.6% | 77.6% | 32.6% | 72.8% | 63.8% | 67.2% | 69.8% | 41.4% | 54.6% | 39.2% | 56.4% | 66.6% | 36.5% | 71.5% | 46.5% | 29.5% | 74.6% | 54.4% | 43.2%
C#Cc1cccc(Nc2ncnc3cc(OCCOC)c(OCCOC)cc23)c1 [erlotinib] + COc1cc(Nc2ncc(F)c(Nc3ccc4c(n3)NC(=O)C(C)(C)O4)n2)cc(OC)c1OC [Tamatinib] (first compound 4 µM, partner dose 2 µM) | 81.9% | 98.5% | 77.3% | 102% | 59.8% | 80% | 68.4% | 78.5% | 48.5% | 78.2% | 67% | 82.3% | 94.2% | 61.1% | 96.4% | 73.4% | 84.3% | 98.6% | 45.1% | 83.4%
C#Cc1cccc(Nc2ncnc3cc(OCCOC)c(OCCOC)cc23)c1 [erlotinib] + O=C(O)C(=O)Nc1sc2c(c1C(=O)O)CCNC2 [TCS401] (first compound 4 µM, partner dose 8.33333 µM) | 66.8% | 70.5% | 110% | 75.1% | 91.3% | 85.7% | 78.8% | 69.9% | 95.7% | 76.7% | 67% | 89.3% | 99% | 63.6% | 89.9% | 89% | 80.5% | 81% | 70% | 64.8%
OCc1c[nH]c2ccccc12 [Indole-3-carbinol] + Cc1ccc(NC(=O)c2cccc(N(C)C)c2)cc1NC(=O)c1ccc(O)cc1 [ZM336372] (first compound 4 µM, partner dose 10 µM) | 108% | 104% | 66.3% | 110% | 80.7% | 98.6% | 104% | 93.1% | 63.9% | 111% | 81.6% | 90.6% | 128% | 78.5% | 87% | 118% | 90.3% | 106% | 80.1% | 89.8%
Cn1c(Nc2ccc(C(F)(F)F)cc2)nc2cc(Oc3ccnc(-c4ncc(C(F)(F)F)[nH]4)c3)ccc21 + Cn1cc(/C=C2\C(=O)Nc3cccnc32)c2ccccc21 [GW441756] (first compound 0.4 µM, partner dose 2 µM) | 26.1% | 61.3% | 85.6% | 30.4% | 78.3% | 67.5% | 66.3% | 62.2% | 48.5% | 54% | 34.1% | 57.2% | 67.1% | 25.2% | 72.5% | 35.9% | 38.5% | 61.8% | 60.4% | 31.9%
Clc1ccc(Nc2nnc(Cc3ccncc3)c3ccccc23)cc1 [vatalanib] + COCC[n+]1c2c(n(Cc3cnccn3)c1C)C(=O)c1ccccc1C2=O [YM155] (first compound 10 µM, partner dose 0.002 µM) | 85.4% | 58.7% | 82.6% | 81.8% | 61.4% | 62.6% | 50.3% | 70.5% | 70.8% | 88.6% | 91.3% | 88.7% | 105% | 66% | 77.6% | 72.7% | 116% | 83.5% | 62.2% | 86.9%
OCc1c[nH]c2ccccc12 [Indole-3-carbinol] + CO[C@@H]1[C@H](N(C)C(=O)c2ccccc2)C[C@H]2O[C@]1(C)n1c3ccccc3c3c4c(c5c6ccccc6n2c5c31)C(=O)NC4 [Midostaurin] (first compound 4 µM, partner dose 0.4 µM) | 46.4% | 66% | 70.2% | 70% | 56.6% | 86.8% | 54.8% | 87.2% | 56.2% | 45.4% | 61.6% | 52.7% | 60% | 61.7% | 62.8% | 72.5% | 37.6% | 45% | 37.4% | 93.3%
Clc1ccc(Nc2nnc(Cc3ccncc3)c3ccccc23)cc1 [vatalanib] + O=C(Nc1cccc(Cl)c1)Nc1ncc(CCNc2ncnc3ccsc23)s1 [SNS314] (first compound 10 µM, partner dose 0.004 µM) | 63.3% | 81.3% | 71.2% | 79.1% | 72.4% | 70.4% | 85.3% | 71.6% | 53.4% | 68.3% | 46.5% | 69.3% | 77.2% | 67.5% | 59.7% | 100% | 69.9% | 89.7% | 48.5% | 71.4%
Clc1ccc(Nc2nnc(Cc3ccncc3)c3ccccc23)cc1 [vatalanib] + C[C@]1(c2nc3c(C(N)=O)cccc3[nH]2)CCCN1 [Veliparib] (first compound 10 µM, partner dose 7 µM) | 85.8% | 69.9% | 72% | 70.3% | 62.1% | 68% | 66.3% | 63.8% | 85.1% | 85.6% | 69.9% | 88.4% | 84.2% | 66.5% | 86% | 66.6% | 77.7% | 77.3% | 21.1% | 58.5%
O=C(CCCCCCC(=O)Nc1ccccc1)NO [vorinostat] + Cc1cc([N+](=O)[O-])ccc1NS(=O)(=O)c1cc(Cl)ccc1Cl [FH535] (first compound 0.4 µM, partner dose 5 µM) | 43.1% | 58.3% | 48.9% | 89.8% | 80% | 54% | 42.9% | 85.8% | 72.3% | 69.5% | 42.8% | 63% | 83.9% | 70.8% | 56.8% | 71.9% | 83.6% | 76% | 110% | 77.9%
Nc1cccc2c1CN(C1CCC(=O)NC1=O)C2=O (stereo not given) [lenalidomide] + NCC(=O)Nc1ccc(-n2nc(C(F)(F)F)cc2-c2ccc3c(ccc4ccccc43)c2)cc1 [OSU03012] (first compound 5 µM, partner dose 5 µM) | 69.9% | 51.4% | 72.2% | 79.1% | 66% | 87.2% | 80.6% | 77.8% | 97.3% | 82.2% | 24.1% | 37% | 39.5% | 55.4% | 86.6% | 69.5% | 81.8% | 82.5% | 52.5% | 54.5%
COCC[n+]1c2c(n(Cc3cnccn3)c1C)C(=O)c1ccccc1C2=O + Cc1cc(N2CCOCC2)cc2[nH]c(-c3c(NC[C@@H](O)c4cccc(Cl)c4)cc[nH]c3=O)nc12 [BMS536924] (first compound 0.002 µM, partner dose 1 µM) | 69% | 52.7% | 36.5% | 32.8% | 67.7% | 95.6% | 27.6% | 29.4% | 41.7% | 76.5% | 43.9% | 25.2% | 57% | 21% | 30.4% | 69.8% | 55.6% | 59.1% | 59.8% | 26.7%
Cn1c(Nc2ccc(C(F)(F)F)cc2)nc2cc(Oc3ccnc(-c4ncc(C(F)(F)F)[nH]4)c3)ccc21 + O=S(=O)(c1ccccc1)N(CC(F)(F)F)c1ccc(C(O)(C(F)(F)F)C(F)(F)F)cc1 [T0901317] (first compound 0.4 µM, partner dose 7 µM) | 26.9% | 43.1% | 80.1% | 39.6% | 79.1% | 69.4% | 60.8% | 66.9% | 38.1% | 53.7% | 29.7% | 38.1% | 66.9% | 38% | 63.8% | 32.1% | 37.9% | 59.7% | 49.3% | 35.5%
C#Cc1cccc(Nc2ncnc3cc(OCCOC)c(OCCOC)cc23)c1 [erlotinib] + Cc1cc([N+](=O)[O-])ccc1NS(=O)(=O)c1cc(Cl)ccc1Cl [FH535] (first compound 4 µM, partner dose 5 µM) | 43.8% | 48.9% | 66.9% | 77% | 69.8% | 51.9% | 53.8% | 64.2% | 83.7% | 64.5% | 58.3% | 87.7% | 70.4% | 43.1% | 74.6% | 75% | 81.3% | 83% | 62.4% | 63.5%
